According to article PMC7511233:
“And” between values parts separate entries of the source, which are not always exact repeats. Equal entries are not always repeated. Each block holds one binder with its values, some of them ahead of it.

Key:
Experiment in all cases: SEC; SEC analysis of purified properdin preparations prior to use (24 ml Superdex 200 increase, 20 mM HEPES/150 mM NaCl, pH 7.5, named for the purification)
Settings in all cases: remark: other sources report otherwise
[1] = molecular target: T1, purified serum properdin (human), P27918
T1 chain: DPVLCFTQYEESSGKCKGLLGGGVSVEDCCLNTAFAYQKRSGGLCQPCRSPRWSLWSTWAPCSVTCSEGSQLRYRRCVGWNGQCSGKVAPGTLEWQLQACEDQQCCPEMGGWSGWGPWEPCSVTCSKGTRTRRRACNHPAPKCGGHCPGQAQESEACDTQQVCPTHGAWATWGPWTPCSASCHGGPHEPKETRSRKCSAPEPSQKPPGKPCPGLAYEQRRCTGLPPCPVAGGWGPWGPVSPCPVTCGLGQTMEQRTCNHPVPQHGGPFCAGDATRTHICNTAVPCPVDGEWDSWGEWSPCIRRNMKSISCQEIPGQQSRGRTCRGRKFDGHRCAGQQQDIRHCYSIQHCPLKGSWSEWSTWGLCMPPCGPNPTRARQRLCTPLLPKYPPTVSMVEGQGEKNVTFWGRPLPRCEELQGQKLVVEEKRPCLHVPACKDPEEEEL

[2] = molecular target: T2, recombinant wild type properdin, dimer and trimer fraction (human), P27918
T2 chain: T1 chain

[3] = molecular target: T3, recombinant wild type properdin, tetramer fraction (human), P27918
T3 chain: T1 chain

stoichiometry N [1]: 2 and 3 and 4
B1: purified serum properdin, P27918 28-469 (natural protein)
chain: T1 chain

stoichiometry N [2]: 2 and 3
B2: recombinant wild type properdin, dimer and trimer fraction, P27918 28-469 (natural protein)
chain: T1 chain

stoichiometry N [3]: 4
B3: recombinant wild type properdin, tetramer fraction, P27918 28-469 (natural protein)
chain: T1 chain
